Source: PubChem BioAssay AID1508624 (National Center for Advancing Translational Sciences (NCATS), 2021)
Among all 48,000 compounds or so, about 120 (0.25%) were called active. About 4% were inconclusive and are not listed. Calls come from the whole dose curve; as a rule, active = well fitted activation curve with a large enough effect; inconclusive = small, poorly fitted or top-dose-only effect, or another doubt; inactive = no such curve, though single readings can be large or run the other way. The list shows a part of the results.

Test: Primary qHTS for Identification of Small Molecule Activators of Huntingtin-Antisense Promoter Activity; note: nearly all actives have a fitted effect of over 55% in size
Conditions: HEK293 HTT-AS promoter firefly luciferase reporter, 24 h; series mostly up to 57.5 µM; activity change, positive = activation: at the top concentration
In short: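 Luminescence was read after Dual-Glo reagent and a 10 min room-temperature incubation. Values were normalized to vehicle (0% activity) and zero RLU (-100% activity). Reporter HEK293 cells had been exposed to compounds (up to 57.5 uM final) for 24 h.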

Activity change, positive = activation, inactive:
CCC(=O)N1c2ccccc2CC1C(=O)N1CCN(c2cccc(Cl)c2)CC1 (stereo not drawn) -14%
CCOc1ccc(NC(=O)C2CC(=O)NC(=Nc3ccc(Cl)c(Cl)c3)S2)cc1 (stereo not drawn) -21.2%
Cc1c(C(=O)NCc2ccccc2)sc2nc3n(c(=O)c12)CCCCC3 25.6%
COc1cccc(CNC(=O)c2sc3nc(C)cc(C)c3c2-n2cccc2)c1OC 2.53%
CCOC(=O)c1ccc(NC(=O)C2CCCN(c3ncnc4onc(-c5ccc(F)cc5)c34)C2)cc1 (stereo not drawn) -21.9%
Cc1ccc(Cl)cc1N1CCN(C(=O)c2ccc(NC(=O)c3nsc4ccccc34)cc2)CC1 -28.5%
CCOC(=O)COc1ccc(CC)cc1C(=O)c1ccn2nc(-c3ccccc3)cc2n1 -8.89%
COC(=O)C(Cc1c[nH]c2ccccc12)NC(=O)COc1cccc(C)c1 (stereo not drawn) -8.8%
COC(=O)c1sccc1S(=O)(=O)N1CCN(c2cc(Cl)ccc2C)CC1 -25.4%
Cc1nn(S(=O)(=O)c2ccc(C(C)(C)C)cc2)c(C)c1S(=O)(=O)N1CCCCCC1 -7.21%
Cc1ccc(-c2n[nH]c3c2C(c2ccc(C(C)(C)C)cc2)NC3=O)cc1 (stereo not drawn) -20.5%
COCCNC(=O)CCn1c(=O)c2cc(OC)c(OC)cc2n(CC(=O)Nc2ccc(Cl)cc2F)c1=O -12.2%
Cc1ccc(NC(=O)c2oc3ccc(S(=O)(=O)N4CCC5(CC4)OCCO5)cc3c2C)cc1C -17.6%
COc1ccccc1-c1nc(SCC(=O)NCc2ccc(C)cc2)c2c(=O)n(C)c(=O)n(C)c2n1 -5.7%
Cc1cccc(CN2C(=O)N(c3ccc(C(C)C)cc3)S(=O)(=O)c3ccccc32)c1 -29.2%
Cc1ccc(-c2ccc(=O)n(CC(=O)Nc3ccc(C)cc3Cl)n2)cc1 -15.7%
COc1cccc(/C=C/c2nc(C#N)c(NCCc3ccccc3)o2)c1 2.34%
Clc1cccc(N2CCN(c3nc4ccccc4n4nnnc34)CC2)c1 14.1%
COc1ccc(C(=O)Nc2ccc3oc(-c4cccnc4)nc3c2)cc1 6.62%
O=C1[C@@H]2[C@H]3CC[C@H](C3)[C@@H]2C(=O)N1CCCCN1CCN(c2ncccn2)CC1 -5.96%
COc1ccc(C2C=C(c3ccccc3)Nc3nc(NC(=O)c4cccc([N+](=O)[O-])c4)nn32)cc1 (stereo not drawn) -9.74%
O=C(NCc1ccccc1)C1CCCN(S(=O)(=O)c2cccc3nsnc23)C1 (stereo not drawn) -15.5%
CC(C)(C)OC(=O)N1CCC(c2c(C(=O)Nc3ccc4c(c3)OCCO4)cnn2-c2ccc(Cl)cc2)CC1 -47.7%
O=C1CN(C(=O)COc2ccc(Cl)cc2)C(c2ccccc2)c2cc(Br)ccc2N1 (stereo not drawn) -26.9%
CC[C@H]1OC(=O)[C@H](C)C(=O)[C@H](C)[C@@H](O[C@H]2O[C@H](C)C[C@H](N(C)C)[C@@H]2O)[C@](C)(OC)C[C@@H](C)C(=O)[C@H](C)[C@H]2N(CCCCn3cnc(-c4cccnc4)c3)C(=O)O[C@]12C -27.4%
CCOc1ccc(NC(=O)CN2C(=O)CC(C)Sc3ccccc32)cc1 (stereo not drawn) -16.2%
Cc1ccc2c(c1)C(Cc1ccccc1F)C(=O)N2 (stereo not drawn) -15.9%
COc1ccc(CCNC(=O)C(CC(C)C)N2Cc3ccccc3C2=O)c(OC)c1OC (stereo not drawn) -4.38%
CCn1cc(CCC(=O)NCc2ccc(C)cc2)c2ccccc21 -4.96%
COc1ccc(CCn2c3c(c(=O)[nH]c2=O)C(NC(=O)c2ccccc2F)(C(F)(F)F)C(=O)N3)cc1OC (stereo not drawn) -9.5%
CC(C)Oc1ccccc1C1C=C(C(=O)O)Nc2ncnn21 (stereo not drawn) -15.4%
COc1cc2c(=O)n(Cc3ccccc3Cl)c(=O)n(CC(=O)Nc3ccc(C)c(C)c3)c2cc1OC -2.38%
Cc1cccc(C(=O)Nc2cc(-c3nc4cccnc4s3)ccc2C)c1 12%
COc1ccc(C)cc1NC(=O)C1CCN(S(=O)(=O)c2ccc3[nH]c(=O)oc3c2)CC1 -19.4%
CCC1CN(C(=O)N2CCC(C(=O)NCc3ccc(N(C)C)cc3)CC2)c2ccccc2O1 (stereo not drawn) -26.4%
CCCCC(=O)NCc1nc2cccnc2n1Cc1ccc(OC)cc1 -4.5%
COc1cccc(Nc2ccc3cc(S(=O)(=O)N4CCC(C)CC4)ccc3n2)c1 -36.7%
CCCOc1cccc(C(=O)Nc2cccc(-c3nc4ncccc4o3)c2C)c1 -9.37%
Cc1cn2c(=O)cc(COC(=O)c3cccc(NC(=O)c4ccc(C(C)(C)C)cc4)c3)nc2s1 -1.92%
CCn1cc2nc(SCC(=O)Nc3ccc(OC)c(OC)c3)n(Cc3ccc(Cl)cc3)c(=O)c2n1 -25.2%
CC(=O)c1cccc(NC(=O)C2CCN(C(=O)c3cnn(-c4ccccc4)c3-n3cccc3)CC2)c1 -31.7%
Cc1c(C(=O)NCc2ccccc2Cl)sc2nc3n(c(=O)c12)CCCCC3 9.73%
COc1ccc(-c2cc(-c3ccc(F)cc3)nc3c2COc2ccc(F)cc2-3)cc1 -8.29%
COc1ccc(-c2oc3ncn4nc(-c5ccccc5O)nc4c3c2-c2ccc(OC)cc2)cc1 -9.51% [at 11.5 µM, percent change from vehicle, -100% = no light]
CCOc1ccc(-n2c(/C=C/c3cccc(F)c3)nc3cc(OC)c(OC)cc3c2=O)cc1 -37.1%
Cc1ccccc1-c1nc2scc(CCNS(=O)(=O)c3ccccc3)n2n1 -16.2%
Cc1nn2c(=O)cc(COC(=O)c3cccc(NC(=O)CCc4ccccc4)c3)nc2s1 -2.38%
COc1ccc2c(c1)CCc1c(C(=O)Nc3c(C)nn(Cc4c(Cl)cccc4Cl)c3C)noc1-2 -24.6%
O=C(Nc1cccc(Nc2ncc(Br)c(NCCc3cnc[nH]3)n2)c1)N1CCCC1 -25.7%
COc1ccccc1N1CCN(CCCNc2cc(=O)n(C)c(=O)n2C)CC1 0.335%
O=C(c1cccs1)c1cn(CCOc2ccc(F)cc2)c2ccccc12 -29.4%
CCOC(=O)c1c(C)[nH]c(C)c1S(=O)(=O)NCC(=O)Nc1ccc(CC)cc1 2.05%
CCc1ccccc1NC(=O)c1cc2sc(Cl)cc2n1CC -20.1%
CCOC(=O)c1noc2ncn(CC(=O)Nc3cc(Cl)ccc3OC)c(=O)c12 -6.38%
O=C(Cn1cnc2onc(-c3ccc(F)cc3)c2c1=O)N1CCN(c2ccccc2F)CC1 -15.4%
COc1cc2ccccc2cc1C(=O)Nc1cccc(-c2nc3ccccc3o2)c1 4.7% [at 11.5 µM, percent change from vehicle, -100% = no light]
COc1ccc(N2CCN(C(=O)c3cn(C)c4ccc(S(=O)(=O)N(C)C5CCCCC5)cc4c3=O)CC2)cc1 -11.4% [at 11.5 µM, percent change from vehicle, -100% = no light]
COc1ccc(CNC(=O)C2CCN(S(=O)(=O)c3c(C)noc3/C=C/c3cccs3)CC2)cc1 -4.48%
CC(C(=O)NCc1cccc(Br)c1)n1ncn2cccc2c1=O (stereo not drawn) -15.7%
Cn1cc(-c2cc3n(n2)CCC(=O)N3CCCC(=O)Nc2ccccc2Cl)c2ccccc21 -10.4%
COc1cc(-c2nc3ccc(Cl)cn3c2Nc2ccc3c(c2)OCO3)ccc1O -19.1%
Cc1ccccc1S(=O)(=O)Cc1ccc(C(=O)NCc2ccccc2Cl)o1 -20.8%
Nc1nn(-c2ccccc2)nc1C(=O)OCc1ccccc1Br 5.13%
CC1=C(C(=O)Nc2ccc(C)cc2Cl)C2(CCCCC2)OC1=O -46.8%
C=CCNc1c(O)cc2c(O)c1C[C@@H](C)C[C@H](OC)[C@@H](O)[C@@H](C)C=C(C)[C@H](OC(N)=O)[C@@H](OC)C=CC=C(C)C(=O)N2 -45.1%
CC(NC(=O)c1ccc(CSc2nc3ccncc3n2Cc2ccc(F)cc2)cc1)c1ccccc1 (stereo not drawn) -17.8%
O=S(=O)(c1ccccc1)c1nc(-c2cccs2)oc1N1CCCCC1 -23.3%
Cc1cccc(OCCCSc2nc(-c3ccc(C(C)(C)C)cc3)nc3cc(=O)[nH]n23)c1C -10.7%
C1Cc2[nH]nc(-c3nn[nH]n3)c2C1 -15.1%
CCCCCn1c(=O)[nH]c2cc(C(=O)NCc3ccc(F)cc3)ccc2c1=O -8.67%
Cc1cccc(-n2c(=O)c3c(c4cc(C)ccc4n3C)n(CC(=O)Nc3ccccc3Cl)c2=O)c1 -21.3%
COCCNC(=O)c1ccc2c(c1)N(Cc1ccc(C(F)(F)F)cc1)C(=O)c1ccccc1S2 -43.1%
COc1ccc(-c2cn(-c3ccc(C)cc3)c(S(=O)(=O)CC(=O)Nc3ccccc3)n2)cc1 10.8%
CCOc1ccccc1CNC(=O)CCCN1C(=O)COc2ccc(C)cc21 -13.8%
Cc1cc(Br)ccc1NC(=O)c1coc(=O)c2ccccc12 -30%
CC(C)c1ccccc1NC(=O)CSc1nnc(COc2ccccc2)o1 17.1% [at 11.5 µM, percent change from vehicle, -100% = no light]
Cc1ccc(CNC(=O)CN(C)S(=O)(=O)c2ccc(Br)s2)cc1 -2.05%
Cc1oc2ncn(CC(C)C)c(=O)c2c1C(=O)Nc1cccc(C(F)(F)F)c1 7.2%
O=C(Nc1ccc(Cl)c(Cl)c1)c1cc(S(=O)(=O)N2CCN(c3cccc(Cl)c3)CC2)ccc1F -17.4%
Cc1nn(CCC(=O)NCc2cccc(Br)c2)c(=O)c2nn(-c3ccccc3)c(C)c12 -0.568%
O=C(c1ccc(CS(=O)c2ccccc2Cl)o1)N1CCN(c2cccc(C(F)(F)F)c2)CC1 (stereo not drawn) -60.6%
CC(C)OCCCn1c(SCC(N)=O)nc2c(sc3ccccc32)c1=O -11.1%
O=C(NCCCCc1ccccc1)c1nn(-c2ccccc2F)nc1CO -20.5%
CCn1c(=O)c2sccc2n2c(CCC(=O)N3CCN(c4ccccc4OC)CC3)nnc12 -16.5%
COc1ccc(-c2nnc(SCC(=O)Nc3ccccc3C)o2)cc1OC -4.55%
CCCOc1ccc(C(=O)NCC(c2ccc(OC)cc2)N2CCCCC2)cc1 (stereo not drawn) 15.2%
CC(C)NC(=O)Cn1ccc2cc(S(=O)(=O)N3CCCCCC3)ccc21 -26.2%
CC(C)CNC(=O)c1c(-c2ccccc2)c(-c2ccccc2)nn(C)c1=O -20%
